According to PMC2276247:
No constants are given. Whether binding was seen depends on the method and setting. For some assays here: In cells and extracts the contact can be indirect. Some entries that bind do so weakly or less than the wild type.

Amino acid sequences for entries named in this document (tags omitted). A change or cut given only in a name is not applied to a line headed by its entry. Chains listed by the source or under a name are the forms on record and can include a tag or linker. Residues count along the entry.
UniProt Q14191: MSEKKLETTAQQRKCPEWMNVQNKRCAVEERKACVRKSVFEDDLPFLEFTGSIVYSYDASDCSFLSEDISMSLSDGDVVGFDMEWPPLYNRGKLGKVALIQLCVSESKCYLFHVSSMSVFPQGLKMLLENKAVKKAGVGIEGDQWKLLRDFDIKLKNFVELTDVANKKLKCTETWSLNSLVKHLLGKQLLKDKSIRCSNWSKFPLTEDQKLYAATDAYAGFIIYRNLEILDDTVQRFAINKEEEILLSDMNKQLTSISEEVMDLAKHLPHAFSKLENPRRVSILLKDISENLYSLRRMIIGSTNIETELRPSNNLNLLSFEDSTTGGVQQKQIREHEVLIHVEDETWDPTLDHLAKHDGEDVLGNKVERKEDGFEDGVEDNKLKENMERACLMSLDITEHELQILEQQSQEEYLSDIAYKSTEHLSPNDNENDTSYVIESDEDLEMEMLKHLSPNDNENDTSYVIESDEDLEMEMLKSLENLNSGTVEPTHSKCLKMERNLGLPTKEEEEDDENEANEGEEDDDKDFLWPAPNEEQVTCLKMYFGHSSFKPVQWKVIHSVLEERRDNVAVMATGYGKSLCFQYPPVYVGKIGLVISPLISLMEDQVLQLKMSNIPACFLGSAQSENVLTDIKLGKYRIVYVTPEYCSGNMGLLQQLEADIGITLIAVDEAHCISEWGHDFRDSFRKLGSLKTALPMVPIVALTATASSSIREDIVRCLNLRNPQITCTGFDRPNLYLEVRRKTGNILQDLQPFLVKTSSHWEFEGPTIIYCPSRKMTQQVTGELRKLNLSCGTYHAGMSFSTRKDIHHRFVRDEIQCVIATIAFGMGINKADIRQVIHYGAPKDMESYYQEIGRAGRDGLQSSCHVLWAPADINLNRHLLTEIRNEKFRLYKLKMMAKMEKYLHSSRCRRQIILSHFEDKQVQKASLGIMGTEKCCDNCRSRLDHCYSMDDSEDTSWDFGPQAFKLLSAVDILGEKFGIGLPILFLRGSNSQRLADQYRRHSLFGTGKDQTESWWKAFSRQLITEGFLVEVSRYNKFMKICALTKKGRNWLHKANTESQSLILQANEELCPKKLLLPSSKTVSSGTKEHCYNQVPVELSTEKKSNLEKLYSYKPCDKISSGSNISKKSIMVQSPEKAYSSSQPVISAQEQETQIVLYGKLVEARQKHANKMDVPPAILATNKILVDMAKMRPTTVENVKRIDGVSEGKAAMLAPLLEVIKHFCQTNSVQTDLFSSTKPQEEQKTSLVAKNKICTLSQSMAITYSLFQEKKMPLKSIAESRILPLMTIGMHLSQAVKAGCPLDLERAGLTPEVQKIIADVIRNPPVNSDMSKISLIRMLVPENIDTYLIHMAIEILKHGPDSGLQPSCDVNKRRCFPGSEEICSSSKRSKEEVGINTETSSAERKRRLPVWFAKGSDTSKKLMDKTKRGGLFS
GST-tagged WRN fragment aa 239-499 (acidic domain): residues 239-499 of Q14191
GST-tagged WRN fragment lacking the p300-binding domain (WRN 488-1432): residues 488-1432 of Q14191
GST-WRN helicase domain (aa 500-946): residues 500-946 of Q14191
UniProt Q09472: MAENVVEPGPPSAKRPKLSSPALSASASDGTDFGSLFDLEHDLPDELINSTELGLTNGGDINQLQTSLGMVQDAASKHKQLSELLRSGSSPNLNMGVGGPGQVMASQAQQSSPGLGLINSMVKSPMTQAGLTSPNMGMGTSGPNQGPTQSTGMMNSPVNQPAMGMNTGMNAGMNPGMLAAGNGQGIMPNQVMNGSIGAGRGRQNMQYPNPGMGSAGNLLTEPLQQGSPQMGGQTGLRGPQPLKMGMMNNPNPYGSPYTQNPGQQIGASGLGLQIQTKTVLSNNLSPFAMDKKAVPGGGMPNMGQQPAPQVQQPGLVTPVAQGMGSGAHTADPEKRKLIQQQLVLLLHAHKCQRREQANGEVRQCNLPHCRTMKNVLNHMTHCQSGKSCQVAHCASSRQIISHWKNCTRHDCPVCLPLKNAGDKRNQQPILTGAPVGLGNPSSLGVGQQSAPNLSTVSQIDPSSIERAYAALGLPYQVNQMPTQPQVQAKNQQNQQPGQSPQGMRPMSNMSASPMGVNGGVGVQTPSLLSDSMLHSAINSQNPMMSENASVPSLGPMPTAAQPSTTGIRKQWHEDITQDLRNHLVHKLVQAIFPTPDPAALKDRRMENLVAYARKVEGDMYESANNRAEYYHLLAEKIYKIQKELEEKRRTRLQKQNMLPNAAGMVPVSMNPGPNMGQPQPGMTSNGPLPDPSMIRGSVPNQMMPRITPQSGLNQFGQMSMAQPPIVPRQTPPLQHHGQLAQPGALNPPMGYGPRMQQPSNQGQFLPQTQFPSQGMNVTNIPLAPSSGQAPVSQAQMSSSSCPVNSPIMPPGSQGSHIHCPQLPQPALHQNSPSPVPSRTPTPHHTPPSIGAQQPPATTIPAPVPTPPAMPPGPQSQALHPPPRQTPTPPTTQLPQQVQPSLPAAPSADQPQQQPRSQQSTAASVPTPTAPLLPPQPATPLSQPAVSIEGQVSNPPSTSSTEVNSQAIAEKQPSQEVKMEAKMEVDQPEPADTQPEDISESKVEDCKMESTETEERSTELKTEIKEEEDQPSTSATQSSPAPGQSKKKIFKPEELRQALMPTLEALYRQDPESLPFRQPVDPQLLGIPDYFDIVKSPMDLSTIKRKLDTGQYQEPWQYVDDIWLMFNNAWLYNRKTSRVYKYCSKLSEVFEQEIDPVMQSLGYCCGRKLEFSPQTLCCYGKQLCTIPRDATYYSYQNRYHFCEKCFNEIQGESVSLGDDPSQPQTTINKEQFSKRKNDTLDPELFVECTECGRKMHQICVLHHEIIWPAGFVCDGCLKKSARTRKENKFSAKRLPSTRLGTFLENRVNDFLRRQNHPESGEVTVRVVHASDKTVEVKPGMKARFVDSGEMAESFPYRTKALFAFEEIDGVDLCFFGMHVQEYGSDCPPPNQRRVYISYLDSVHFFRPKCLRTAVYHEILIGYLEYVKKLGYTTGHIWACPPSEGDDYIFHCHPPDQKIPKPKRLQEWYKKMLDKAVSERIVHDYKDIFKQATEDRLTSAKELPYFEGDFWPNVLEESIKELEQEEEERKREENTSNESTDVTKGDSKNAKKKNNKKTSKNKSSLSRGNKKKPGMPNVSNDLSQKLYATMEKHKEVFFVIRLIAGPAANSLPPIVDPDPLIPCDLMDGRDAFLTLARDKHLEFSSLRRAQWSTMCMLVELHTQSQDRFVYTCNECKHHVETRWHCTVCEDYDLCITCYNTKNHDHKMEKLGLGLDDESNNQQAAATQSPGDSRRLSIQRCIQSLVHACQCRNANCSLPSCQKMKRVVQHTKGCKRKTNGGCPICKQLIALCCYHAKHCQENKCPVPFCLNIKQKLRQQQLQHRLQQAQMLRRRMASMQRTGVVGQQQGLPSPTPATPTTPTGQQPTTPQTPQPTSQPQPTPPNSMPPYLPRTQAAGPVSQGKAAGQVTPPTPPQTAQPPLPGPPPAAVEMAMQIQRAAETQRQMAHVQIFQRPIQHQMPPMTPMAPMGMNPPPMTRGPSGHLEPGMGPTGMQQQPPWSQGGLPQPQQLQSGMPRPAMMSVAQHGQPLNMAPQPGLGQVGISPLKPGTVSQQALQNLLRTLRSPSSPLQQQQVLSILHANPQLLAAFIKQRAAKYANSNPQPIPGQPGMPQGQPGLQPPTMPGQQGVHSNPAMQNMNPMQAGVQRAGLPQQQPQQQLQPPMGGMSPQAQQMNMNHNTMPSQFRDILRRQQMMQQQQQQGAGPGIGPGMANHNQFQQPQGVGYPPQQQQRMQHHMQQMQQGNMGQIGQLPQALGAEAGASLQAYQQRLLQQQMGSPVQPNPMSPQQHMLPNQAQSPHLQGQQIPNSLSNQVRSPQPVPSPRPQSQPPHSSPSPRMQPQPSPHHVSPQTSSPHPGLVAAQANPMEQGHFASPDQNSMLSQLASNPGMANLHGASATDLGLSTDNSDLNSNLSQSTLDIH

Assays:
[1] = target: GST-WRN helicase domain (aa 500-946) (human) (UniProt Q14191); experiment: pull-down; GST or GST-WRN fragments prebound to glutathione sepharose beads, incubated with HeLa nuclear extract in the presence of DNase I, 3 h at 4°C; Western with mouse anti-p300; only the target purified
[2] = target: GST-tagged WRN fragment aa 239-499 (acidic domain) (human) (UniProt Q14191); experiment: as above
[3] = target: Werner protein (WRN), endogenous (human (endogenous in HeLa)) (UniProt Q14191); experiment: co-IP; HeLa nuclear extracts (250 µg) pre-treated with DNase I, or with or without ethidium bromide (50 µg/ml); rabbit anti-WRN or anti-p300 antibodies, 16 h at 4°C, rProtein G-Agarose; Western analysis
[4] = target: GST-tagged WRN fragment lacking the p300-binding domain (WRN 488-1432) (human) (UniProt Q14191); experiment: far-Western, overlay or dot blot; GST-tagged WRN fragments resolved on SDS-PAGE, transferred to a membrane, blotted with 5 µg/ml p300 protein, probed with anti-p300; both purified
[5] = target: GST-tagged WRN fragment aa 239-499 (acidic domain) (human) (UniProt Q14191); experiment: as above

Substance | binding [1] | binding [2] | binding [3] | binding [4] | binding [5]
p300, endogenous (from UniProt Q09472 1-2414) | no binding | binds | binds | – | –
recombinant human p300 (histone acetyltransferase enzyme p300) (from UniProt Q09472 1-2414) | – | – | – | no binding (tested: 5 µg/ml) | binds
